Measured values taken from the supplement of paper PMC11383711.
The list shows a part of the results. Binding of human antibodies (heavy:light variable regions, tested as scFv in one mRNA-display pool) to influenza hemagglutinin, with or without the stem antibody CR9114 bound first. Score = (mean enrichment − median) / interquartile range of that screen; higher = more enriched, 0 = typical non-binder. Active = above the paper's cut-off per screen: stems 28; unblocked H1 Solomon Islands 5, H1 Michigan 3, H3 5, H5 19, H7 2.85, both B 5; blocked 9, 7, H5 10, H7 10, B Phuket 10, B Lee 11.5. Scores are scaled within each screen and are no affinities; replicates correlate at about 0.6 to 0.9, and antibodies rare in the pool are noisier.

B1: antibody 3G04 (protein)
chain 1: EVQLVESGGGLVKPGGSLRLSCAASGFILSDYYMSWIRQAPGKGLEWISYISNSGSSIYNADSVKGRLTISRDSAKNSVFLELNSLRAEDTAVYYCARFPRFGSGSPYQNDAFDIWGQGTMVTVSS
chain 2: DIQMTQSPSSLSASVGDRVSITCRAGRNINNYLNWYQQPPGKAPKLLIFSAVTLQSGVPSRFSGSGSGTEFSLTINSLQPEDSATYYCQQTYGNPTFGQGTKVEIK
B2: W85-1E04 (protein)
chain 1: EVQLVESGGGVVQPGGSLRLSCAASGFTFGDYAMHWVRQPPGKGLEWVSLITGDGGSTKYADSVKGRFTISRDNSKNSLSLEMNSLRTEDSALYYCAKDIVSVVAAVDYWGQGARVTVSS
chain 2: QSALTQPASVSGSPGQSITISCTGTSSDVGCYNYVSWYQQHPGKAPKLMIYDVNNRPSGVSDRFSGSKSGNTASLTISGLQAEDEADFYCSSYTVSSTLVFGSGTKVTVL
B3: C1-F02 (protein)
chain 1: VQLQESGPGLVKPSETLSLTCTVSGGSIYSTIHYWGWIRQPPGKGLEWIGSIYYDANTYYNPSLKSRVTMSIDTSKNQFSLRVYSVTAADTAVYYCAKINSGYEYYYGMDVWGQGTTVTVSS
chain 2: EIVMTQSPGTLSVSPGERATLSCRASQSVRGNVAWYQQKSGQAPRLLIYNTSTRATGIPARFSGSGSGTEFTLTISSLQSEDLAVYYCQQYNNWLYTFGQGTKVEIK
B4: FISW-k.01 (protein)
chain 1: QVTLRESGPALVKPTQTLTLTCTFSGFSLSTSGMCVSWIRQPPGKALEWLALIDWDDGTFYSTSLKTRLTISKDTSKSQVVLTMTNMGPVDTGTYYCARKLYGDYSDWFDYWGQGILVTVSS
chain 2: SYELTQPLSVSVALGQTARITCGGNNIGSKNVHWYQQKPGQAPVLVIYRDSNRPSGIPERFSGSNSGNTATLTVSRAQAGDEADYYCQLSDSSIVVFGGGTKLTVL
B5: AG13-3E05 (protein)
chain 1: VQLQESGPGLVSPSETLSLTCTVSADSINSYYWNWIRQPPGKGLEWIGYIHYSGRSIHNPSLNRRVTISMDTSKNQFSLRLTSVTAADTAMYYCASLKKGETSPFDYWGQGTLVTVSS
chain 2: DIQMTQSPSTLSASVGDRVSLTCRASQSIGSWLAWYQQKPGKAPKLLIFHASSLESGVPSRFSGSGSGTEFTLTINSLQPDDFATYYCQQYYVYWTFGQGTKVEIK
B6: 029-09-2A06 (protein)
chain 1: EVQLVESGGGLVKPGGSLRLSCSASGFTFSSYTMHWVRQAPGKGLEWLSSISSSSAYIYYADSVKGRFTVSRDNAKKSLYLQMDSLRAEDTAIYFCARDGTSLTVAGPLDYWGQGTLVTVSS
chain 2: DIQMTQSPSSLSASVGDRVTITCRASQGIRDDLAWYQQKPGKAPKRLIYAASSLQSAFPARFSGSGSGTEFTLTISGLQPEDFATYYCLQYNSYPRTFGQGTKVEIK
B7: 045-09-1A01 (protein)
chain 1: QVQLQESGPGLVKPSQTLSLTCTVSGGSIRSGIHYWSWIRQFPGKGLEWIGLIHYSENTHHNPSLKSRVAMSVDTSKNQFSLTLSSVTAADTAVYYCARAAKESLCIGGSCDSNYEHYGLDVWGQGTTVTVSS
chain 2: DIQMTQSPSSLSASIGDRVTITCRASQSIRNYLNWYQQKPGKAPKLVIYAVSNLQSGVPSRFSGSGSGTDFTLTISSLQPEDLATYYCQQSYSTLPYTFGQGTKVEIK
B8: AG11-3C06 (protein)
chain 1: VQLVESGGVVVQPGGSLNLSCAASGFTFDDYAMHWVRQGPGKGLEWVSLISWDGGSRYYADSVKGRFTISRDNSKNSLYLEMNSLRTEDTALYYCAKDLGSSWYQLGEKAFDSWGQGTLVTVSS
chain 2: IVMTQSPSSLSASVGDRVTITCQASHDISHYLNWYQQKPGRAPKLLIYDASNLATGVPSRFSGSGSGTDFTFTISTLQPEDIATYFCQHYDHLPQITFGPGTKVEIK
B9: 01.f.01 (protein)
chain 1: EVQLLESGGGVVQPGGSLRLSCGATGFALRDYGIHWVRQAPGQGLEWVAFTRHDGTHKDYIDSVKGRFTISRDNSKNTLYLQMNRLRVEDTAIYYCAKVGYQLLYSGAFHIWGQGTMVSVS
chain 2: DIVMTQSPVSLPVTPGEPASISCRSSQSLLHTSEYNYLDWYLQKPGQSPQLLIYLGSHRASGVPDRFSGSGSGTDFTLKISRVEAEDVGVYYCMQALQTPQTFGQGTKLEIK
B10: S8V1-146-Ig (protein)
chain 1: SGAEVKKPGASVKVSCKASGYKFTNYYVHWVRQAPGQGLEWMGIINPREWLGIMNPRAGKTVFAQKFQARVSVTADTSTSTVSMELNSLGYEDTAVYFCARGHDILTDYPHLHWLDSWGQGTLVTVSS
chain 2: SITPGESASISCSSAQSLLRRDGYNYLDWYLRKAGQPPQLLIYLGSTRASGVPDRFSGSGSGTNFTLKISRAEAEDVGVYYCMQALQMPLTFGGGTQVEI
B11: 01.l.01 (protein)
chain 1: EVQLVESGGGLVQPGRSLRLSCAASGFTFHDYAMHWVRQVPGKGLEWVSSISWNSYRIGYADSVKGRFTISRDNAKNSLYLQMNSLRAEDTALYYCAKDPQGELIGGRFDPWGQGTLVTVSS
chain 2: DIQMTQSPSSLSASVGDRVTITCRASQSITTYLNWYQQKPGKAPKLLIHTASNLQSGVPSRFSGSGSGTDFTLTISSLQPEDFATYYCQQSYSTRFTFGPGTKVDIK
B12: C1-3A03 (protein)
chain 1: QLQLQESGPGLVKPSETLSLTCTVDGGSISSSSYYWDWIRQPPGKGLEWIGSIYYSGETYHNPSLKTRVTTSVDTSKNQFSLRLSSVTAADTAVYYCARRCGGYQYYYGMDVWGQGTTVTV
chain 2: EIVMTQSPATLSVSPGERATLSCRVSQSVIRDLAWYQQKPGQAPRLLIYGASTRATGIPARFSGSGSGTEFTLTISSVHSEDFAVYYCQQYNNWAPITFGQGTRLEIK
B13: 2-12C (protein)
chain 1: EVQLVQSGAEVKKPGESLKISCKGSGNGFTTYWIGWVRQVPGKGLEWMGIIYPDDSDTRYSPSFQGQVSISADKSISTAFLQWSSLKASDTAMYFCARLGDVETAMVGQDAFHIWGQGTMVTVSS
chain 2: EIVLTQSPGTLSLSPGDRATLSCRASQSVSSSFLAWYQQKPGQAPRLLMYGASRRATGIPDRFSGSGSGTDFTLTISRLEPEDFAVYYCQQYDSSPFTFGGGTKVEIK
B14: 039-10-4G01 (protein)
chain 1: QVQLVQSGAEVKKPGASVKVSCKASGYTFSTYYIHWVRQAPGQGPEWMGIINPNGGTVAYARKFQGRVTMTRDTSTSTVYMDLRSLSSEDTAVYYCARDGREVPATTRKDYYYYYYMDIWGRGTTVTVSS
chain 2: DIVMTQSPDSLAVSLGERATINCKSSQSVFYSSNNKDDLAWYQQKPGQPPKLLIYWASTRGSGVPDRFSGSGSGTDFTLTISSLQAEDVAVYYCQQYYTTPPTFGGGTKVEIK
B15: R95-1D02 (protein)
chain 1: QVQLQESGPGLVKPSETLSLTCTVSGDSVSDNFWTWIRQPPGKALEWIGYMYYSGSIKYNPSLKSRVTMSLDTSKNQFSLELTSVTAADTAVYYCARATTWGAPEFDYWGQGTLVTVSS
chain 2: DIQMTQSPSSLSASVGDTVTITCRASQSINFYLNWYQQKPGRAPNLLISSASILQSGVPSRFSGSGSGTGFTLTISSLQPEDFATYFCQQSYSSPYTFGQGTKLETK
B16: W85-2G05 (protein)
chain 1: LVQPQESGPGLVKPSETLSLTCSVSGDSMYDYYWSWIRQPPGKGLEWIGCIHYSGSTNYNPSLKSRVTISVDTSKNQFSLKLSSVTAADTALYYCATGRSSNSGWYPYFYYGLDVWGQGTTVTVSS
chain 2: QSALTQPPSASGTPGQRVTISCSGSSSNIGENYVYWYQLFPGTAPKLVIYRSDQRPSGVPDRFSGSKSGTSASLVISGLRSEDEADFYCATWDDSLSGSWVFGGGTKLTV
B17: R95-1F02 (protein)
chain 1: EVQLLESGGGLVQPGGSLRLSCAASGFTFSSCAMTWVRRAPGKGLEWVSAISAGGGSTWYADSVKGRFTISRDNSKNTLYLQMNGLRAEDTAVYYCAKDLLHWYFDLWGRGTLVTVSS
chain 2: EIVLTQSPATLSLSPGEGATLSCRASQSVSSYLAWYQQKPGQAPRLLIYDASNRATGIPARFSGSGSGTDFTLTISSLEPEDFAVYYCQQRRNWPLTFGGGTKVEIK
B18: D1-H1-17-H3-14 (protein)
chain 1: QVQLQESGPGLVKPSESLSLTCSVSGGSVSSNLHYWSWIRQLPGKGLEWIGYISYTGSTKYNPSLNGRVTLSIDASKNQFSLELSSVTAADTAVYYCARDFFEKLIADDLNAFDIWGQGTMVTVSG
chain 2: DIRVTQSPSSLSASVGDRVTITCRASQSISRSLNWYQQRPGKAPKFLIYAASNLQSGVPSRFSGGGSGTDFTLTISSLQPEDFATYYCQETYSRTFGQGTKADIK
B19: AG11-2B01 (protein)
chain 1: VQLQESGPGLVRPSETLSLTCSLSGGSFSEATDYWGWVRQAPGKGLEWIGSMSPSGITYISPSLTSRVTMSVDTSKKQFSLRLSFVVAADAAMYYCIKDRDIVSRGGFDLWGQGTLVTVSS
chain 2: DIQMTQSPSSLSASVGDAVTITCRASESISIFLNWYQHKPGKAPKLLIYLTSTLQSGVPSRFSGSGSGTDFTLTISGLQPEDFATYYCQQSYSHLPYTFGQGTKVEIK

Each binder was assayed against H1 HA stem construct (mini-HA #4900) (assay: mRNA display binding score; higher = more enriched on the antigen). Details: antigen blocked with: nothing.
Description: (§1)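 A pool of natively paired antibodies, displayed as scFv on mRNA, was selected once on antigen-coated beads and sequenced before and after; two replicates.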

Row | Binder | mRNA display binding score
1 | B1 | inactive: -0.443
2 | B2 | inactive: -0.595
3 | B3 | inactive: 1.95
4 | B4 | inactive: -0.0667
5 | B5 | inactive: 0.641
6 | B6 | inactive: -0.115
7 | B7 | inactive: 2.14
8 | B8 | inactive: -1.28
9 | B9 | inactive: 0.0981
10 | B10 | inactive: 6.85
11 | B11 | inactive: 1.21
12 | B12 | inactive: -0.0323
13 | B13 | inactive: -0.279
14 | B14 | inactive: -0.177
15 | B15 | inactive: 5.68
16 | B16 | inactive: 0.842
17 | B17 | inactive: 2.36
18 | B18 | inactive: 1.45
19 | B19 | inactive: 0.859

These binders were tested against H3 HA stem construct (H3ssF) in the same assay as above. Details: antigen blocked with: nothing.
Description: as §1

Row | Binder | mRNA display binding score
20 | B1 | inactive: -0.459
21 | B2 | inactive: -0.341
22 | B3 | inactive: 3.96
23 | B4 | inactive: 2.88
24 | B5 | inactive: 0.309
25 | B6 | active: 42.9
26 | B7 | inactive: 2.99
27 | B8 | inactive: -0.805
28 | B9 | inactive: 0.301
29 | B10 | inactive: 1.9
30 | B11 | inactive: 2.38
31 | B12 | inactive: 4.74
32 | B13 | inactive: 0.429
33 | B14 | inactive: 1.24
34 | B15 | inactive: 11.4
35 | B16 | inactive: 5.08
36 | B17 | inactive: 8.75
37 | B18 | inactive: 6.48
38 | B19 | inactive: -0.153
